Source: patent US20240376185A1

Tests used:
[1] = target: Canine IgG (Fc) (dog); experiment: BLI (Octet Red96), SDA on NTA sensor, IgG Fc as analyte
[2] = target: chicken gamma globulin (chicken); experiment: ELISA on coated antigen; 0.2 subtracted
[3] = target: horse IgG (horse); experiment: ELISA on coated antigen; 0.2 subtracted
[4] = target: horse F(ab')2 fragment (horse); experiment: ELISA on coated antigen
[5] = target: horse IgG Fc fragment (horse); experiment: ELISA on coated antigen
[6] = target: swine IgG (swine); experiment: ELISA on coated antigen
[7] = target: dog Fc fragment (dog); experiment: ELISA on coated antigen
[8] = target: dog IgG (dog); experiment: ELISA on coated antigen
[9] = target: cat gamma globulin (cat); experiment: ELISA on coated antigen
[10] = target: guinea pig IgG (guinea pig); experiment: ELISA on coated antigen
[11] = target: bovine IgG (bovine); experiment: ELISA on coated antigen
[12] = target: mouse gamma globulin (mouse); experiment: ELISA on coated antigen
[13] = target: human gamma globulin (human); experiment: ELISA on coated antigen
[14] = target: dog Fab fragment (dog); experiment: ELISA on coated antigen
[15] = target: horse Fab fragment (horse); experiment: ELISA on coated antigen
[16] = target: sheep gamma globulin (sheep); experiment: ELISA on coated antigen; 0.1 subtracted
[17] = target: chicken gamma globulin (chicken); experiment: ELISA on coated antigen
[18] = target: dog albumin (dog) (UniProt P49822); experiment: ELISA on coated albumin
[19] = target: Equine IgG (Fc) (horse); experiment: BLI (Octet Red96), SDA on NTA sensor, IgG Fc as analyte
[20] = target: horse IgG (horse); experiment: ELISA on coated antigen

Chain of UniProt P49822 (P49822 25-608 limits assumed): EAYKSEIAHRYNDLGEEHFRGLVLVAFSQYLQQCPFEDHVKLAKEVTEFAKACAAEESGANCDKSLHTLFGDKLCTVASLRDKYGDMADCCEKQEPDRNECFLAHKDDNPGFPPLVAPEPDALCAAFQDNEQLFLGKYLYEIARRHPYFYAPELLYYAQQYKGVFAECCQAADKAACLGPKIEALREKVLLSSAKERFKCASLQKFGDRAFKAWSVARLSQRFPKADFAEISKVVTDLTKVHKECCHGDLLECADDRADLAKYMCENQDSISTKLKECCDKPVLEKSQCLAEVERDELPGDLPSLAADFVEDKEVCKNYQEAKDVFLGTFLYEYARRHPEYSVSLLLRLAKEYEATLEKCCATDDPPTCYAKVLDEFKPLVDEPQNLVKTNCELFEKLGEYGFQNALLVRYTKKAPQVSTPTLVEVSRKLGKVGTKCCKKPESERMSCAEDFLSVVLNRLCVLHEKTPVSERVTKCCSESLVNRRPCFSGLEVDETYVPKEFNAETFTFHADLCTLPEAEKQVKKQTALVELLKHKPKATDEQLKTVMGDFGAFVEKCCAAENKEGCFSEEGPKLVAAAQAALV

maximal absorbance value at 450 nm (background subtracted) [2] [A450]	maximal absorbance value at 450 nm (background subtracted) [3] [A450]	maximal absorbance value at 450 nm (background subtracted) [4] [A450]	maximal absorbance value at 450 nm (background subtracted) [5] [A450]	maximal absorbance value at 450 nm (background subtracted) [6] [A450]	maximal absorbance value at 450 nm (background subtracted) [7] [A450]	SDA Effective Concentration resulting in A450 nm = 0.2 [8] [ng/mL]	maximal absorbance value at 450 nm (background subtracted) [8] [A450]	maximal absorbance value at 450 nm (background subtracted) [9] [A450]	maximal absorbance value at 450 nm (background subtracted) [10] [A450]	maximal absorbance value at 450 nm (background subtracted) [11] [A450]	maximal absorbance value at 450 nm (background subtracted) [12] [A450]	maximal absorbance value at 450 nm (background subtracted) [13] [A450]	maximal absorbance value at 450 nm (background subtracted) [14] [A450]	maximal absorbance value at 450 nm (background subtracted) [15] [A450]	maximal absorbance value at 450 nm (background subtracted) [16] [A450]	SDA Effective Concentration resulting in A450 nm = 0.2 [14] [ng/mL]	Binder	other results
0.064	0.056	0.078	0.063	0.089	1.4	252	0.618	0.071	0.076	0.077	0.068	0.121	0.065	0.074	0.101	–	SVG23L (VHH, not shown: small tags and cut ends) VHH: QVQLQESGGGLVQAGGSLRLSCAASGRAFGSYTMNWFRQAPGKERDFVAGIMSSGMNTWYADSVKGRFTISRDNAKNTVYLQMNSLKPEDTAVYYCASRPRSTMTSGRYLYDYWGQGTQVTVSS	Kd [1]: 0.215 nM; koff [1]: 0.000521 s⁻¹; kon [1]: 2.43e+06 M⁻¹ s⁻¹; SDA Effective Concentration resulting in A450 nm = 0.2 [7]: 78 ng/mL
0.069	0.088	0.089	1.18	0.132	1.45	50	0.847	0.108	0.094	0.087	0.091	0.139	0.089	0.194	0.144	–	SVG24L (VHH, not shown: small tags and cut ends) VHH: QVQLQQSGGGLVQAGGSLRLSCAASGRTFSTYNIAWFRQAPGKEREFVTAITWGSGNTYYADSVKGRFTISRDNAKNTVFLQMNSLKPDDTAVYYCAARRSLGPTMAFAYEYWGQGTQVTVSS	Kd [1]: 2.22 nM; koff [1]: 0.000344 s⁻¹; kon [1]: 155000 M⁻¹ s⁻¹; Kd [19]: 3.45 nM; koff [19]: 0.000353 s⁻¹; kon [19]: 102000 M⁻¹ s⁻¹; SDA Effective Concentration resulting in A450 nm = 0.2 [5]: 109 ng/mL; SDA Effective Concentration resulting in A450 nm = 0.2 [7]: 28 ng/mL
0.397	0.253	0.299	0.068	0.114	0.073	29	0.876	0.583	0.318	0.322	0.136	0.249	1.22	0.303	0.162	26	SVG19L (VHH, not shown: small tags and cut ends) VHH: QVQLQQSGGGLVQPGGSLRLSCAASGFTFSSYAMSWVRQAPGKGLEWVSAINSGGGSTSYADSVKGRFTISRDNAKNTLYLQMNSLKPEDTAVYYCAKDFDPWGVGTGGYDYWGQGTQVTVSS	SDA Effective Concentration resulting in A450 nm = 0.2 [4]: 215 ng/mL; SDA Effective Concentration resulting in A450 nm = 0.2 [9]: 58 ng/mL; SDA Effective Concentration resulting in A450 nm = 0.2 [10]: 126 ng/mL; SDA Effective Concentration resulting in A450 nm = 0.2 [11]: 127 ng/mL; SDA Effective Concentration resulting in A450 nm = 0.4 [17]: 65 ng/mL; SDA Effective Concentration resulting in A450 nm = 0.4 [20]: 212 ng/mL; SDA Effective Concentration resulting in A450 nm = 0.2 [13]: 223 ng/mL; SDA Effective Concentration resulting in A450 nm = 0.2 [15]: 305 ng/mL

Further lines, the binder ahead of its results:

Binder	maximal absorbance value at 450 nm (background subtracted) [2] [A450]	maximal absorbance value at 450 nm (background subtracted) [3] [A450]	maximal absorbance value at 450 nm (background subtracted) [4] [A450]	maximal absorbance value at 450 nm (background subtracted) [5] [A450]	maximal absorbance value at 450 nm (background subtracted) [6] [A450]	maximal absorbance value at 450 nm (background subtracted) [7] [A450]	SDA Effective Concentration resulting in A450 nm = 0.2 [8] [ng/mL]	maximal absorbance value at 450 nm (background subtracted) [8] [A450]	maximal absorbance value at 450 nm (background subtracted) [9] [A450]	maximal absorbance value at 450 nm (background subtracted) [10] [A450]	maximal absorbance value at 450 nm (background subtracted) [11] [A450]	maximal absorbance value at 450 nm (background subtracted) [12] [A450]	maximal absorbance value at 450 nm (background subtracted) [13] [A450]	maximal absorbance value at 450 nm (background subtracted) [14] [A450]	maximal absorbance value at 450 nm (background subtracted) [15] [A450]	maximal absorbance value at 450 nm (background subtracted) [16] [A450]	SDA Effective Concentration resulting in A450 nm = 0.2 [14] [ng/mL]	other results
SVG18L (VHH, not shown: small tags and cut ends) VHH: QVQLQQSGGGLVQPGGSLRLSCAASGFTFSSYAMSWVRQAPGKGLEWVSAINSGGDIISYADSVKGRFTISRDNAKNTLYLQMNSLKPEDTAVYYCAKSPIVRTYGGYDYWGQGTQVTVSS	0.47	0.127	0.149	0.064	0.1	0.071	37	0.743	0.233	0.146	0.101	0.075	0.142	1.17	0.144	0.131	29	SDA Effective Concentration resulting in A450 nm = 0.2 [9]: 683 ng/mL; SDA Effective Concentration resulting in A450 nm = 0.4 [17]: 45 ng/mL
SVG07L (VHH, not shown: small tags and cut ends) VHH: QVQLQESGPGLVKPSQTLSLTCTVSGGSITTTAYAWSWIRQPPGKGLEWMGAIRFDGTTDYSPSLKSRISISRDTSNNQFSLRMSSVTPEDTAVYYCARYGVVSDHGGLDYWGQGTQVTVSS	0.074	0.074	0.1	0.066	0.103	0.073	441	0.242	0.116	0.137	0.108	0.073	0.164	0.21	0.085	0.114	818	–
SVA04L (VHH, not shown: small tags and cut ends) VHH: QVQLQQSGGGLVQAGGSLRLACAASGRTLSSYVMGWFRQAPGKEREFVAAISWSGGSTYYADSVKGRFTISRDNAKNTVYLQMNSLKPEDTAVYYCAATLRGSNRYYSGRVYDYWGQGTQVTVSS	–	–	–	–	–	–	–	–	–	–	–	–	–	–	–	–	–	maximal absorbance value at 450 nm [18]: 0.069 A450
SVG03L (VHH, not shown: small tags and cut ends) VHH: QVQLQESGGGLVQAGGSLRLSCAASGRTFSNYVMGWFRQAPGKEREFVSAISWNGVSTFYADSVKGRFTISRDNAKNTVYLQMNSLKPEDTAVYYCAADERFVVRYNYWGQGTQVTVSS	0.079	1.39	0.132	1.44	0.105	0.146	–	0.08	0.088	0.114	0.083	0.093	0.193	0.083	0.096	0.18	–	Kd [19]: 0.43 nM; koff [19]: 0.000491 s⁻¹; kon [19]: 1.14e+06 M⁻¹ s⁻¹; SDA Effective Concentration resulting in A450 nm = 0.2 [5]: 35 ng/mL; SDA Effective Concentration resulting in A450 nm = 0.4 [20]: 16 ng/mL
